Results as given in publication PMC6005513.
Changes are numbered by the printed parent chain. No constants are given. Whether binding was seen depends on the method and setting. Some binding calls cover weakened binding; strength is not graded here.

Assays:
Test in all cases: binding of fluorescently labelled peptide to transfected cells, plate fluorescence scan; 10 nM myr-preS1-Al633 peptide in DMEM, 20 min, 37°C, on NTCP/Ntcp-transfected HEK293 cells in 24-well plates; washed with DMEM 2 min at 37°C; plates scanned at room temperature (Typhoon FLA 7000, 633 nm), total signal per area; only the binder purified
human NTCP G158D (human) = target: T1, human NTCP G158D (human) (UniProt Q14973)
T1 sequence: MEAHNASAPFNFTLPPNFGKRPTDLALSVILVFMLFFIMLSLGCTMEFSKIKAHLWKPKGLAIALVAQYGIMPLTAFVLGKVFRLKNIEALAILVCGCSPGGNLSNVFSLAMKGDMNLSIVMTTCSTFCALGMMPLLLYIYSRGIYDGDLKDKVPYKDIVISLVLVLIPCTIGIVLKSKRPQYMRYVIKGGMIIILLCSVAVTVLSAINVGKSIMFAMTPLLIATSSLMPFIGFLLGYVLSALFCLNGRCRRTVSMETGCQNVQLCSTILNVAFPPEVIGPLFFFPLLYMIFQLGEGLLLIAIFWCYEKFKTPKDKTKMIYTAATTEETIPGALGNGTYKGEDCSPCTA

[1] = target: T2, Macaca mulatta (rhesus macaque) Ntcp, wild type (Macaca mulatta)
T2 sequence: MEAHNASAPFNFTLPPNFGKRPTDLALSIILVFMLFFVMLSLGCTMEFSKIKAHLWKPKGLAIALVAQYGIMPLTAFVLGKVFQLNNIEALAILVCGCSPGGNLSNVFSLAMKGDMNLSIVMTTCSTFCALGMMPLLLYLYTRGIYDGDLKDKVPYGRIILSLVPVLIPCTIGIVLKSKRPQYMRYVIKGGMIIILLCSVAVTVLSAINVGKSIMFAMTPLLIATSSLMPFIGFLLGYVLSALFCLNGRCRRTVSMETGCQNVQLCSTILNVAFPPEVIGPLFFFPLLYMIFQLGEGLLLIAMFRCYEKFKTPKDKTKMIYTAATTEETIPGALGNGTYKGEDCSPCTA

[2] = target: T3, Callithrix jacchus (common marmoset) Ntcp G158S (Callithrix jacchus) (UniProt F7HA36)
T3 sequence: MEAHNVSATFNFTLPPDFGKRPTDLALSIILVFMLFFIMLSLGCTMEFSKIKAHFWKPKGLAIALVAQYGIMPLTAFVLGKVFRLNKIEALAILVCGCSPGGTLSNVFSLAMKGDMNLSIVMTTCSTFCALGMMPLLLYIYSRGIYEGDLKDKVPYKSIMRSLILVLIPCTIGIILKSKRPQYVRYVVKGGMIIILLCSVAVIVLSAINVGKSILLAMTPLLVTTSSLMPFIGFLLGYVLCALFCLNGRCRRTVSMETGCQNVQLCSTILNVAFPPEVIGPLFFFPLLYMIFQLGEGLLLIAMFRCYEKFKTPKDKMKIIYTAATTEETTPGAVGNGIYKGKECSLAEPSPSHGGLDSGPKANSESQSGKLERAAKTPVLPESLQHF

[3] = target: T4, Macaca silenus (lion-tailed macaque) Ntcp, wild type (Macaca silenus)
T4 sequence: T2 sequence

[4] = target: T5, Saguinus oedipus (cotton-top tamarin) Ntcp, wild type (Saguinus oedipus)
T5 sequence: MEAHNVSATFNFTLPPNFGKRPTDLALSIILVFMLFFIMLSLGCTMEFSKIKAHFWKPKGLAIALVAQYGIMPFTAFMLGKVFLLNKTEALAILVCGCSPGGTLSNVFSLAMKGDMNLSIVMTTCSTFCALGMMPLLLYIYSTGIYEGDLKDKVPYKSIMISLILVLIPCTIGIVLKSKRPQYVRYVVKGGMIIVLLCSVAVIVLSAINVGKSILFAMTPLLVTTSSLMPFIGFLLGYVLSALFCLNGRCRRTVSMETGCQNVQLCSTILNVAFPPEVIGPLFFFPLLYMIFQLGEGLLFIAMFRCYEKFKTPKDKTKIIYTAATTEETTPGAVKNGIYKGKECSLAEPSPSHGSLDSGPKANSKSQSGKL

[5] = target: Papio hamadryas (hamadryas baboon) Ntcp R158G (Papio hamadryas)
human NTCP G158S (human) = target: T6, human NTCP G158S (human) (UniProt Q14973)
T6 sequence: T1 sequence with D158S

## HBV myr-preS1-Al633-peptide (from UniProt P03138 2-48)
Human NTCP G158D (human)
  binding: no binding (tested: 10 nM)
[1]
  binding: no binding (tested: 10 nM)
[2]
  binding: binds
[3]
  binding: no binding (tested: 10 nM)
[4]
  binding: no binding (tested: 10 nM)
[5]
  binding: binds
Human NTCP G158S (human)
  binding: binds
